Results from PubChem BioAssay AID1347073 (National Center for Advancing Translational Sciences (NCATS), 2019).
Hit rate of the full screen: of about 45,000 compounds, about 200 (0.44%) were called active. Another 7% or so got no clear call; they are omitted. Calls follow the shape of the dose curve; as a rule, active = well fitted activation curve with a large enough effect; inconclusive = small, poorly fitted or top-dose-only effect; inactive = no such curve, though single readings can be large or run the other way. This is one part of the list.

Assay: qHTS of TDP-43 Inhibitors: NCGC Sytravon Library Screen; also: 0% is about no effect; nearly all actives have a fitted effect of over 55% in size
Conditions: yeast TDP-43 toxicity rescue, BacTiter-Glo growth, 24 h; series mostly up to 46.1 µM; growth rescue (activation): at the top concentration
Summary of the method: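 TDP-43-expressing yeast, pregrown in raffinose, seeded at OD600 0.02 in galactose medium with compound for 24 hr at 30 deg C. Growth read by BacTiter-Glo luminescence, so rescue of toxicity appears as activation.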

Structure (SMILES)	growth rescue (activation)
CC(=O)Nc1ccc(NC(=O)CCSCCc2ccccn2)cc1	inactive: 1.21%
O=C(O)CSC(C(=O)Nc1ccc(Br)cc1)c1ccccc1 (stereo not given)	inactive: 9.59%
COc1cc(C(C(=O)NCC2CCCO2)N(C(=O)Cn2nnc3ccccc32)c2ccc(OC)c(OC)c2)ccc1O (stereo not given)	inactive: 2.27%
O=C(CSc1cn[nH]n1)Nc1ccc(Cl)cc1Cl	inactive: 5.19%
N#Cc1ccc(COC(=O)c2cnc3ccccc3n2)cc1	inactive: 5.78%
CCCSc1nc2sc3c(c2c(=O)[nH]1)CC(C)(CC)OC3 (stereo not given)	inactive: -0.972%
CCOc1ccc2nc(COC(=O)c3cccc([N+](=O)[O-])c3)c(C(C)=O)[n+]([O-])c2c1	inactive: 7.57%
Cc1nc(/C(N)=N/OC(=O)Cc2ccccc2)no1	inactive: -9.53%
CCCn1c(SCC(=O)NC(=O)NC(C)(C)C)n[nH]c1=O	inactive: -8.43%
COc1ccc(CCCc2nc3ccccc3[nH]2)cc1	inactive: 2.2%
COc1ccc(CNC(=O)CN(C(=O)CCC(=O)Nc2ccccn2)c2cccc(C)c2)cc1	inactive: 4.95%
CCN1CCN(C(=O)c2ccc(COc3ccc(Cl)cc3)o2)CC1	inactive: 13.8%
Cc1ccc(CNC(=O)CCCC(=O)c2ccccc2)cc1	inactive: 18.2%
COc1ccc(N2CCN(C(=O)C(Cc3ccccc3)NC(=O)c3ccccc3)CC2)cc1 (stereo not given)	inactive: 9.69%
Nc1nc(-c2ccccn2)nc(N)c1Cc1c(F)cccc1Cl	inactive: -12.8%
Cc1csc(NC(=O)CSc2nnc(-c3ccccn3)n2-c2ccc(C)c(C)c2)n1	inactive: 23.2%
O=C(N/C(=C/c1ccccc1)C(=O)N1CCCCC1)c1ccc(Br)o1	inactive: -4.2%
CCc1ccccc1NC(=O)C1CCN(c2cnccn2)CC1	inactive: 13%
O=C(C1CCN(S(=O)(=O)c2cccc3nonc23)CC1)N1CCCCC1	inactive: 11.8%
Cc1cccc(C)c1NC(=O)c1csc([C@H]2C[C@H](O)[C@@H](CO)O2)n1	inactive: 8.77%
CCC(=O)Nc1nnc(SCC(=O)NC2CCCC2)s1	inactive: -4.33%
N#CCN1CCN(CCC(=O)Nc2ccc(OCc3ccccc3)cc2)CC1	inactive: 0.398%
O=C1c2ccccc2C(=O)N1CC1=NCCc2ccccc21	inactive: 9.81%
O=C(COc1ccc(Cl)cc1Cl)N1CCN(c2ccccn2)CC1	inactive: -12.1%

Structure (SMILES)	growth rescue (activation)
COc1ccc(Cl)cc1CN1C(=O)NC2(CCCCCC2)C1=O	inactive: 5.63%
Cn1c(SCc2cc([N+](=O)[O-])cc3c2OCOC3)nnc1-c1ccccn1	inactive: -8.65%
O=C1/C(=C\c2ccco2)SC(=S)N1c1ccccc1	inactive: 9.38%
Cc1ccc(S(=O)(=O)N(C)C)cc1-n1c(SCC(=O)Nc2ccc(F)c(F)c2F)nc2ccccc2c1=O	inactive: 7.59%
COc1cc2ccccc2cc1C(=O)NC1CCCC1	inactive: 18.2%
Cc1ccc(NS(=O)(=O)c2cccc(C(=O)O)c2)cc1S(=O)(=O)N1CCOCC1	inactive: 0.621%
CC(OC(=O)c1cc(S(=O)(=O)N(C)c2ccccc2)ccc1Cl)C(=O)Nc1ccc2c(c1)OCCO2 (stereo not given)	inactive: 26.6%
COc1ccccc1NC(=O)Nc1cnccn1	inactive: 12.9%
COc1ccc(C(=O)CCC(=O)NCCc2c[nH]c3ccccc23)cc1	inactive: 12.1%
CC(=O)Nc1ccc(Oc2cnccn2)cc1	inactive: 2.93%
COCCNC(=O)C(C)N(c1ccc(Oc2ccccc2)cc1)S(C)(=O)=O (stereo not given)	inactive: -16.1%
NS(=O)(=O)c1ccc(NCC2COc3ccccc3O2)c([N+](=O)[O-])c1 (stereo not given)	inactive: -9.42%
CC(NC(=O)C(=S)N1CCN(C)CC1)c1ccccc1 (stereo not given)	inactive: 8.36%
CC(=O)NCCc1ccc(C(=O)COC(=O)c2cc(C)oc2C)cc1	inactive: 10.3%
COC(=O)c1cnn2c1C(=O)N(Cc1cccs1)CC2	inactive: 20.6%
CCOC(=O)/C=C1\SCC(=O)N1CC(=O)NCCOC	inactive: -4.18%
COc1ccc(C(=O)C2CCCN(C(=O)CCC3=NNC(=O)CC3)C2)c(C)c1 (stereo not given)	inactive: -7.36%
Cc1cc(OCC(=O)OCC(=O)NCc2cccs2)ccc1Cl	inactive: -13.1%
CC(C)=CC(=O)OCC(=O)Nc1cccc([N+](=O)[O-])c1	inactive: 20.5%
CN(C)C(=O)c1ccc(N/C=C(\C=O)c2nc3ccccc3o2)cc1	inactive: -3.13%
Cc1cccc(OCC(O)Cn2c(N3CCCCC3)nc3c2c(=O)[nH]c(=O)n3C)c1 (stereo not given)	inactive: 1.3%
CC1(C)CC(=O)c2cnc3nc4ccccc4n3c2C1	inactive: 8.82%
CCOc1cc(/C=C2/C(=O)NN(c3cccc(Cl)c3)C2=O)ccc1O	inactive: -21.1%
COc1cc(-c2coc3c(C(=O)Nc4ccc(C(C)C)cc4)cccc23)ccc1O	inactive: 29.3%

Structure (SMILES)	growth rescue (activation)
COCCN(C(=S)Nc1ccccc1C)C(C)c1cccnc1 (stereo not given)	inactive: 11%
O=C(CN1CCN(C(=O)c2ccco2)CC1)N1CCc2[nH]c3ccccc3c2C1	inactive: -2.66%
CCOC(=O)N1CCC(NS(=O)(=O)c2cc(Br)cc3c2N(C(=O)CC)CC3)CC1	inactive: 7.51%
N#Cc1cc(C(=O)c2ccccc2O)cn(-c2ccc(Cl)cc2)c1=O	inactive: 17.9%
O=C(NNc1cccc(Cl)n1)C(F)(F)F	inactive: -5.96%
Cc1cc(NC(=O)CSc2nc3c(cc2C#N)CCC3)no1	inactive: 2.32%
CCCCNC(=O)C1CCC(CNS(=O)(=O)c2ccc(C)cc2)CC1 (stereo not given)	inactive: 8.54%
COCCCN1C(=O)C(=O)/C(=C(/O)c2ccc(OC(C)C)cc2)C1c1cccnc1 (stereo not given)	inactive: 4.84%
CCNC(=S)N/N=C(\C)c1ccc(Cl)s1	inactive: 25.8%
COc1ccc(NC(=O)CCNS(=O)(=O)c2ccc(Cl)c([N+](=O)[O-])c2)cc1S(N)(=O)=O	inactive: 13.9%
CC(Sc1nnc2n1CCCCC2)C(=O)Nc1ccc(S(N)(=O)=O)cc1 (stereo not given)	inactive: 34.4%
COc1ccc(C(C(=O)NCC2CCCO2)N(C(=O)CNC(=O)c2cccs2)c2ccc(C)cc2)cc1OC (stereo not given)	inactive: 6.97%
COc1ccccc1CCNC(=O)C1(C)CC1(Cl)Cl (stereo not given)	inactive: 13.7%
O=P(OC1CCCCC1)(OC1CCCCC1)C(O)c1cccnc1 (stereo not given)	inactive: -5.8%
O=C(NNC(=S)NC1CCCCC1)c1sc2ccccc2c1Cl	inactive: 13.1%
CC(=O)c1ccc(C(=O)N2CCCC(C(=O)c3cc(F)ccc3F)C2)s1 (stereo not given)	inactive: 27.8%
Cc1nc(NCc2ccc(S(N)(=O)=O)cc2)c2c(C)c(C)sc2n1	inactive: -0.394%
O=C(Nc1ccc2c(c1)C(=O)OC2)c1ccc(Cl)cc1	inactive: 7.14%
N#C/C(=N\Nc1ccccc1[N+](=O)[O-])C(=N)N1CCCCC1	inactive: -24.9%
O=C(NCc1cccnc1)c1cccc(NC(=O)c2ccco2)c1	inactive: 7.72%
CN(C)CCCNc1oc(/C=C/c2ccc(F)cc2)nc1C#N	inactive: 12%
O=[N+]([O-])c1cc(S(=O)(=O)Nc2ccc(Cl)cc2)ccc1N/N=C/c1ccncc1	inactive: -10.6%
